Variants at the background level are over-represented here.
B1: TPR 5TU (parent)
chain: GGAUCUUCUCGAUCUAACAAAAAAGACAAAUCUGCCACAAAGCUUGAGAGCAUCUUCGGAUGCAGAGGCGGCAGCCUUCGGUGGCGCGAUAGCGCCAACGUUCUCAACUAUGACACGCAAAACGCGUGCUCCGUUGAAUGGAGUUUAUCAUG

Variants of: B1
Assay: polymerase ribozyme fitness, log enrichment relative to wild type (log ratio); higher = more active; in vitro selection for triplet polymerase activity
Outline: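 The heterodimeric triplet polymerase ribozyme's subunits were each mutagenized into PCR-built libraries and transcribed. Every library was selected once, in triplicate, by annealing with a biotinylated primer, the partner subunit and triplets, incubating frozen at −7 °C, gel-excising extended constructs, capturing on streptavidin beads and running RT-PCR. Input and output libraries were Illumina-sequenced, with genotypes kept only at ≥10 input reads and ≥1 read per output. Fitness, from inverse-variance-weighted replicate averages, is the base-2 logarithm of genotype enrichment over wild-type enrichment.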

Variant	polymerase ribozyme fitness (log ratio)
A16C U82G	-1.06
C14U U56A C63U A66C G126U	≤ -4.2
A16C U55A A106G	-1.85
A16C A17C A26U A91U G128C A137C U148G C149G	≤ -4.2
U15G A20U C43A A97C U144A	≤ -4.2
A16U A20C A91U G141U	≤ -4.2
U15G A30C G42U U56G C69A C123U G141U	≤ -4.2
A16C A21G C76G C85A	≤ -4.2
C14U A49C A91C	≤ -4.2
U15G A20U C51U C95G C123G C132G	≤ -4.2
U15A A60G G80U C96U A122C	-1.4
C14U A52C U56A A97U A98U	-4.07
A16C C38U A64G G94U C99U A107U C118G A142C U144C	≤ -4.2
C14U A20G A21G A41C G80C C95U G117A G133C	≤ -4.2
A16C A20C G84U A97U U130C	-4.17
U15G U55G G71C C85U A142U C149U	≤ -4.2
A16C A26G A28C C51U G83A G117A A122G G143A	≤ -4.2
U15G C32A G70C G83C A107G C129U U139G	≤ -4.2
U15C C57G U82G G94A	0.771
C14U A30G G48A C76G A98U U102G C118G	≤ -4.2
U15C A22C C85U U127C	-2

Variant	polymerase ribozyme fitness (log ratio)
U15G A17U A22U C87A A147C	≤ -4.2
C14U C18G U104G C108G A115G U144G A147U	≤ -4.2
A16U A19C A60G C85A G92A G133A A142U	≤ -4.2
A16C U31C A37C A40C C95G G100A C114U	≤ -4.2
U15A G65A A66C A73G U127G U130C A147U	≤ -4.2
A16C U144G	-0.499
A16C A24C G59A C85G G94A	≤ -4.2
A16U A64U A66U G94A C108U A150G	≤ -4.2
U15C A40C C93A C95U C116A A121U	-1.18
A16C A29C G42U C54U U55A G92A U145A	≤ -4.2
C14G U78A G86A	≤ -4.2
U15G U77A U78G G88U C149G	≤ -4.2
C14U A41G G68A A73G	≤ -4.2
C14U A17U A24U C76A C85U	-3.79
C14U A40G U53G C75A A91U G141U	≤ -4.2
A16C C85U C95A C132U	-3.71
U15C A37G C99G C118A C149G	≤ -4.2
U15A A37G A106U U148A	≤ -4.2
U15G G50C C95A C99U A120U	≤ -4.2
A16U A24U C27U A39U U55A C76A	≤ -4.2
A16C U78C G83U G86A A121C	≤ -4.2

Variant	polymerase ribozyme fitness (log ratio)
A16G A20C A22C G25A A37U A40C C75U C96U U130G A138U U145G	≤ -4.2
A16C A150U	-0.0438
A16G A30U U90G G152U	≤ -4.2
A16G A30U C38A C96G A97C C105G A107U A110U	≤ -4.2
C14U G86A C103G	≤ -4.2
U15C A52G A66G C79U C96G	≤ -4.2
C14U C51U G70A C116A C129U	≤ -4.2
C14U A21G A29G C85U C116A	-4.2
C14U A39U G84U A91U C123A	≤ -4.2
A16G C36G U55A G68A C76G C93G A150G	≤ -4.2
U15G A37G A49U U82G C85G G92A C99A A138U C149G U151G	≤ -4.2
A16U A39G A40C C54U U101G U139C U144C	≤ -4.2
U15C A21C U56C G83A	-0.11
C14U A22U U31G G62U C72U A91U C118A	≤ -4.2
A16G C36U A49C G88A C93G A107U G140U G143C	≤ -4.2
U15C A17C A26G C57A G59C G94U C118U	≤ -4.2
A16G U31C A91U C93G	≤ -4.2
A16G A26C G58A G86U U90A A97U C105A C149G	≤ -4.2
A16G A73U G94U	-2.22
C14U A122G	-1.71
C14U U15G A49G G62A G83A A137G U148G	≤ -4.2

Variant	polymerase ribozyme fitness (log ratio)
A16U A21U U55A C57U G141A	≤ -4.2
A16U A24U C57A G68C C93G A107C U146G	≤ -4.2
A16U A47G C51U C95A C114U	-3.93
U15G C35G G59U C93G A142G	≤ -4.2
A16G A29U A49C G70A G71C C87U	≤ -4.2
A16G U44A G74U C93U U102G U144C	≤ -4.2
U15A G94A	-0.258
C14U U15A C32U C38U U56A G58A C69A C76A A98U U151C	≤ -4.2
C14U A29U G71A G88C C93A	≤ -4.2
U15A G74U C79G	≤ -4.2
A16C A17G C57U G86A G133U	≤ -4.2
U15G A20G C54G G68C C85U C105A C114A A137U	≤ -4.2
A16U A47G G92A C96U U111G C114U	≤ -4.2
A16G A23G A37U G86A U135A	≤ -4.2
U15A C43G C63U C85U U102A A107U U130G U135G A138C	≤ -4.2
A16U A39G C76U C99G C105U G124C	≤ -4.2
C14G U148A	-4.14
A16G U44A C93G U144A U148A	≤ -4.2
A16C A19U G25U C54U G94A A115U C129A U144A	≤ -4.2
A16C A24U A26U C36U C79U C118G	≤ -4.2
C14U A20C G46C U53A U102C A106G G140U C149G	≤ -4.2

— the RNAGym collection of RNA variant scans (doi:10.1073/pnas.2313332121)
